Data as given in patent US4263427A, “Monensin urethane derivatives” (priority 1979, dated 1981).

System: rumen fluid

`CC[C@@H](C(=O)O)[C@@H]1O[C@@H]([C@@H](C)[C@H](O)[C@H](C)C(=O)[C@H](CC)[C@H]2O[C@]3(C=C[C@@H](O)[C@]4(CC[C@@](C)([C@H]5CC[C@](O)(CC)[C@H](C)O5)O4)O3)[C@H](C)C[C@@H]2C)[C@@H](C)C[C@@H]1C` [Narasin, reference compound] was tested, and the “Relative levels of propionate (C3) to acetate + butyrate (C2 + C4)” value was 167%.
